# From the supplement of paper PMC10037445
# Whole data set: some 2,900 compounds, median “NF-kB SEAP reporter activity, fold change vs agonist alone” near 0.99, cut for the highest 2% near 2.6. Some of the results follow.
# Experiments:
# RAW-Dual [1] = experiment: NF-kB SEAP reporter activity, fold change vs agonist alone; cytotoxicity flag (confluency mask): cytotoxic (confluency <70% of control); higher = enhanced NF-kB activity
# In short: (§1)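 Cytotoxic wells were those whose IncuCyte confluency was below 70% of agonist controls in both mask sets. The cells were RAW-Dual macrophages at 50,000 cells/well in DMEM on 384-well plates, dosed with 50 nL of library stock by pin tool, stimulated with a PRR agonist 1 h later, and kept at 37 °C, 5% CO2 for 20 hours. IRF and NF-κB reporter activity, as fold change over agonist-alone wells, came from supernatant read by QuantiLuc luminescence and QuantiBlue absorbance, respectively.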
# RAW-Dual [2] = experiment: NF-kB SEAP reporter activity, fold change vs agonist alone; higher = enhanced NF-kB activity
# In short: as §1
# RAW-Dual [3] = experiment: NF-kB SEAP reporter activity, fold change vs agonist alone; cytotoxicity flag (confluency mask): not cytotoxic; higher = enhanced NF-kB activity
# In short: as §1
# [4] = agonist: ODN 1826 (TLR9) 0.5 ug/mL
# [5] = agonist: Pam2CSK4 (TLR2/6) 0.1 ug/mL
# [6] = agonist: Pam3CSK4 (TLR2/1) 0.1 ug/mL
# [7] = library stock concentration (final ~1000-fold dilution): 10 mM, cytotoxicity flag (confluency mask): not cytotoxic, agonist: Imiquimod (TLR7) […]
# [8] = library stock concentration (final ~1000-fold dilution): 10 mM, cytotoxicity flag (confluency mask): not cytotoxic, agonist: MPLA (TLR4) […]
smiles,measurement,setting,value
COC(=O)[C@]12CCC(C)(C)C[C@H]1[C@H]1C(=O)C=C3[C@@]4(C)C=C(C#N)C(=O)C(C)(C)[C@@H]4CC[C@@]3(C)[C@]1(C)CC2 (library stock concentration (final ~1000-fold dilution): 10 mM),NF-kB SEAP reporter activity,RAW-Dual [1]; agonist: LPS (TLR4) 0.1 ug/mL,0.302
same,NF-kB SEAP reporter activity,RAW-Dual [1]; [4],0.201
same,NF-kB SEAP reporter activity,RAW-Dual [1]; [5],0.0748
same,NF-kB SEAP reporter activity,RAW-Dual [1]; [6],0.173
COC(=O)[C@]12CCC(C)(C)C[C@H]1[C@H]1C(=O)C=C3[C@@]4(C)C=C(C#N)C(=O)C(C)(C)[C@@H]4CC[C@@]3(C)[C@]1(C)CC2,NF-kB SEAP reporter activity,"RAW-Dual [2]; library stock concentration (final ~1000-fold dilution): 10 mM, cytotoxicity flag (confluency mask): cytotoxic (confluency <70% of control), agonist: Imiquimod (TLR7) […]",0.137
same,NF-kB SEAP reporter activity,"RAW-Dual [2]; library stock concentration (final ~1000-fold dilution): 10 mM, cytotoxicity flag (confluency mask): cytotoxic (confluency <70% of control), agonist: MPLA (TLR4) […]",0.267
CCCOc1ccn2c(C(C)=O)cc(-c3ccccc3S(C)(=O)=O)c2c1 (library stock concentration (final ~1000-fold dilution): 10 mM),NF-kB SEAP reporter activity,RAW-Dual [3]; agonist: LPS (TLR4) 0.1 ug/mL,1.3
same,NF-kB SEAP reporter activity,RAW-Dual [3]; [4],1.19
same,NF-kB SEAP reporter activity,RAW-Dual [3]; [5],1.06
same,NF-kB SEAP reporter activity,RAW-Dual [3]; [6],1.37
CCCOc1ccn2c(C(C)=O)cc(-c3ccccc3S(C)(=O)=O)c2c1,NF-kB SEAP reporter activity,RAW-Dual [2]; [7],1.07
same,NF-kB SEAP reporter activity,RAW-Dual [2]; [8],1.24
c1ccc(CNc2nc(NCc3ccccc3)c3ccccc3n2)cc1,NF-kB SEAP reporter activity,RAW-Dual [2]; [7],0.134
same,NF-kB SEAP reporter activity,RAW-Dual [2]; [8],0.232
c1ccc(CNc2nc(NCc3ccccc3)c3ccccc3n2)cc1 (library stock concentration (final ~1000-fold dilution): 10 mM),NF-kB SEAP reporter activity,RAW-Dual [3]; agonist: LPS (TLR4) 0.1 ug/mL,0.213
same,NF-kB SEAP reporter activity,RAW-Dual [3]; [4],0.184
same,NF-kB SEAP reporter activity,RAW-Dual [3]; [5],0.0684
same,NF-kB SEAP reporter activity,RAW-Dual [3]; [6],0.138
COC(=O)CCSCc1ccc(-c2onc(C)c2NC(=O)OC(C)c2ccccc2Cl)cc1 (centres undefined) (library stock concentration (final ~1000-fold dilution): 10 mM),NF-kB SEAP reporter activity,RAW-Dual [3]; agonist: LPS (TLR4) 0.1 ug/mL,1.23
same,NF-kB SEAP reporter activity,RAW-Dual [3]; [4],1.33
same,NF-kB SEAP reporter activity,RAW-Dual [3]; [5],1
same,NF-kB SEAP reporter activity,RAW-Dual [3]; [6],1.24
COC(=O)CCSCc1ccc(-c2onc(C)c2NC(=O)OC(C)c2ccccc2Cl)cc1 (centres undefined),NF-kB SEAP reporter activity,RAW-Dual [2]; [7],1.15
same,NF-kB SEAP reporter activity,RAW-Dual [2]; [8],1.15
NCC1OC(OC2C(CO)OC(OC3C(O)C(N)CC(N)C3OC3OC(CO)C(O)C(O)C3N)C2O)C(N)C(O)C1O.O=S(=O)(O)O (centres undefined) (library stock concentration (final ~1000-fold dilution): 10 mM water),NF-kB SEAP reporter activity,RAW-Dual [3]; agonist: LPS (TLR4) 0.1 ug/mL,1.05
same,NF-kB SEAP reporter activity,RAW-Dual [3]; [4],1.24
same,NF-kB SEAP reporter activity,RAW-Dual [3]; [5],1.27
same,NF-kB SEAP reporter activity,RAW-Dual [3]; [6],1.03
NCC1OC(OC2C(CO)OC(OC3C(O)C(N)CC(N)C3OC3OC(CO)C(O)C(O)C3N)C2O)C(N)C(O)C1O.O=S(=O)(O)O (centres undefined),NF-kB SEAP reporter activity,"RAW-Dual [2]; library stock concentration (final ~1000-fold dilution): 10 mM water, cytotoxicity flag (confluency mask): not cytotoxic, agonist: Imiquimod (TLR7) […]",0.946
same,NF-kB SEAP reporter activity,"RAW-Dual [2]; library stock concentration (final ~1000-fold dilution): 10 mM water, cytotoxicity flag (confluency mask): not cytotoxic, agonist: MPLA (TLR4) […]",1.03
O=C(NCCO)c1cccc(-c2cc(Nc3ccc(OC(F)(F)F)cc3)ncn2)c1 (library stock concentration (final ~1000-fold dilution): 10 mM),NF-kB SEAP reporter activity,RAW-Dual [3]; agonist: LPS (TLR4) 0.1 ug/mL,1.15
same,NF-kB SEAP reporter activity,RAW-Dual [3]; [4],0.796
same,NF-kB SEAP reporter activity,RAW-Dual [3]; [5],0.96
same,NF-kB SEAP reporter activity,RAW-Dual [3]; [6],1.03
